“And” between values parts separate entries of the source, which are not always exact repeats. Identical values can stand only once. Counter-ions that a name gives are not always drawn. ± gives the standard deviation of the averaged measurements. The full ranking holds about 3,200 compounds; the median of “nuclei count (viability) relative to DMSO” is about 99, and the lowest 2% start at about 16. This is one part of the list.
Test system: U2OS
Test: nuclei count (viability) relative to DMSO (% of DMSO); higher = more viable cells
Settings: 10 µM; 24 h
Description: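 Primary image-based screen in U2OS cells: compounds at 10 uM for 24 h, then a 1 h o-propargyl-puromycin (OPP) pulse, click labelling, and high-throughput microscopy. Mean cytoplasmic OPP intensity and nuclei count were normalised to DMSO wells within each plate (DMSO = 100) and averaged over triplicate plates.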

How did the nuclei count turn out when CC(=O)Oc1cc(C(C)C)c(OCCN(C)C)cc1C [Moxisylyte hydrochoride] was run?
Its nuclei count is 99.6.

How did the nuclei count turn out when CC1=C(/C=C/C(C)=C/C=C/C(C)=C/C(=O)Nc2ccc(O)cc2)C(C)(C)CCC1 [Fenretinide] was run?
Its nuclei count is 86.8.

With NC(=O)c1ncn([C@@H]2O[C@H](CO)[C@@H](O)[C@H]2O)c1N as the compound, how does the nuclei count read?
Its nuclei count is 103.

With NC(=O)c1ncn([C@@H]2O[C@H](CO)[C@@H](O)[C@H]2O)c1N [Acadesine] as the compound, how does the nuclei count read?
Its nuclei count is 107 ± 7.9.

For CCCCC(=O)O[C@]1(C(=O)CO)[C@@H](C)C[C@H]2[C@@H]3CCC4=CC(=O)C=C[C@]4(C)[C@@]3(F)[C@@H](O)C[C@@]21C [Betamethasone valerate (Betnovate)], which nuclei count is on record?
Its nuclei count is 109.

CC(=O)OCC(=O)[C@@]1(O)CC[C@H]2[C@@H]3CCC4=CC(=O)C=C[C@]4(C)[C@@]3(F)[C@@H](O)C[C@@]21C [Isoflupredone acetate] was tested. Which nuclei count did it give?
The nuclei count was 105.

With CC(=O)OCC(=O)[C@@]1(O)CC[C@H]2[C@@H]3CCC4=CC(=O)CC[C@]4(C)[C@H]3C(=O)C[C@@]21C [Cortisone acetate (Cortone)] as the compound, how does the nuclei count read?
The nuclei count was 108.

Cn1cc(C(=O)OCC2CCN(CCNS(C)(=O)=O)CC2)c2ccccc21 was tested. Which nuclei count did it give?
The nuclei count was 102.

How did the nuclei count turn out when C#C[C@]1(O)CC[C@H]2[C@@H]3[C@H](C)CC4=C(CCC(=O)C4)[C@H]3CC[C@@]21C [Tibolone] was run?
The nuclei count was 97.4.

How did the nuclei count turn out when OC[C@@H](O)[C@@H](O)[C@H](O)[C@@H](O)CO [Sorbitol (Glucitol)] was run?
Its nuclei count is 104.

How did the nuclei count turn out when C[C@@H](CN1CCC(n2c(=O)[nH]c3cc(Cl)ccc32)CC1)NC(=O)c1ccc2ccccc2c1 was run?
Its nuclei count is 101.

For O=C(O)COc1cccc(-c2ocnc2-c2nc(-c3ccccc3)c(-c3ccccc3)o2)c1, which nuclei count is on record?
The nuclei count was 105.

For O=C1c2c(O)cc(O)cc2OC(c2ccc(O)c(O)c2)C1O (stereo not drawn) [Taxifolin (Dihydroquercetin)], which nuclei count is on record?
Its nuclei count is 90.7.

For CN(C)CCCOc1nn(Cc2ccccc2)c2ccccc12 [Benzydamine hydrochloride], which nuclei count is on record?
Its nuclei count is 109.

How did the nuclei count turn out when COc1ccc(Nc2nccc(NCCO)n2)cc1 [Cardiogenol C hydrochloride] was run?
The nuclei count was 90.8.

Which nuclei count does the source give for FC(F)(F)c1ccc(/C=C/c2nc(COc3ccc(CCCCn4ccnn4)cc3)co2)cc1 [Mubritinib (TAK 165)] here?
The nuclei count was 109.

With FC(F)(F)c1ccc(/C=C/c2nc(COc3ccc(CCCCn4ccnn4)cc3)co2)cc1 as the compound, how does the nuclei count read?
The nuclei count was 100.

CC(C)NCCN(C(C)C)S(=O)(=O)c1ccc(Cl)cc1Cl was tested. Which nuclei count did it give?
Its nuclei count is 79.5.

Which nuclei count does the source give for O=C1c2ccccc2C(=O)c2c(NCCc3ccc(O)cc3)ccc(NCCc3ccc(O)cc3)c21 here?
Its nuclei count is 97.1.

Nc1ccn(C[C@@H](CO)OCP(=O)(O)O)c(=O)n1 [Cidofovir (Vistide)] was tested. Which nuclei count did it give?
The nuclei count was 101.

CNC(=O)c1nn(C)c2c1C(C)(C)Cc1cnc(Nc3ccc(N4CCN(C)CC4)cc3)nc1-2 was tested. Which nuclei count did it give?
The nuclei count was 54.8 and 36.4.

With CC(C)(O)CC[C@@H](O)[C@](C)(O)[C@H]1CC[C@@]2(O)C3=CC(=O)[C@@H]4C[C@@H](O)[C@@H](O)C[C@]4(C)[C@H]3CC[C@]12C [20-Hydroxyecdysone] as the compound, how does the nuclei count read?
Its nuclei count is 94.5.

How did the nuclei count turn out when Cc1ccc(/C=N/NC(=O)c2ccccc2Oc2ccccc2)o1 was run?
The nuclei count was 95.7 and 104.

Nc1ccc(S(=O)(=O)Nc2ccc(Cl)nn2)cc1 [Sulfachloropyridazine] was tested. Which nuclei count did it give?
The nuclei count was 104.

COc1cc2nc(N3CCN(C(=O)C4CCCO4)CC3)nc(N)c2cc1OC (stereo not drawn) [Terazosin hydrochloride] was tested. Which nuclei count did it give?
Its nuclei count is 93.3 ± 9.9.

For CN1CCN(c2cccc(Nc3nc4c(-c5ccc(S(C)(=O)=O)cc5)cccn4n3)c2)CC1, which nuclei count is on record?
The nuclei count was 95.2 ± 2.6.

With Oc1ccc(O)cc1 [Hydroquinone] as the compound, how does the nuclei count read?
The nuclei count was 64.9.

How did the nuclei count turn out when CC1(CN2CCC(n3c(=O)[nH]c4ccccc43)CC2)OCc2ccccc2-n2cccc21 (stereo not drawn) was run?
Its nuclei count is 84.2.

NC(=O)c1noc([C@H](CCCC2CCCCC2)CC(=O)NO)n1 was tested. Which nuclei count did it give?
Its nuclei count is 84.7.

COc1ccc(CCN(C)CCc2ccc(OC)c(OC)c2)cc1OC [YS-035 hydrochloride] was tested. Which nuclei count did it give?
The nuclei count was 108.

Which nuclei count does the source give for COc1ccc(CCN(C)CCc2ccc(OC)c(OC)c2)cc1OC here?
Its nuclei count is 83.3.

CC(=O)O[C@]1(C(C)=O)CC[C@H]2[C@@H]3C=C(C)C4=CC(=O)CC[C@@H]4[C@H]3CC[C@@]21C [Nomegestrol acetate] was tested. Which nuclei count did it give?
Its nuclei count is 102.

For CC[C@@]1(O)C(=O)OCc2c1cc1n(c2=O)Cc2cc3cc(O)ccc3nc2-1 [10-Hydroxycamptothecin], which nuclei count is on record?
The nuclei count was 43.

For CC(C)Oc1cccc(-n2c(CCc3c[nH]c4ccc(Br)cc34)nc3ccccc3c2=O)c1, which nuclei count is on record?
Its nuclei count is 106.

CCCn1c(=O)c2[nH]c(-c3ccccc3)nc2n(CCC)c1=O [1,3-Dipropyl-8-phenylxanthine] was tested. Which nuclei count did it give?
Its nuclei count is 98.9.

With Cc1cnc(Nc2ccc(N3CCN(C)CC3)cc2)nc1Nc1cccc(S(=O)(=O)NC(C)(C)C)c1 as the compound, how does the nuclei count read?
The nuclei count was 5.44.

With CC(C)CCN1c2nc(Nc3cc(F)c(O)c(F)c3)ncc2N(C)C(=O)C1C (stereo not drawn) as the compound, how does the nuclei count read?
Its nuclei count is 54 ± 3.2.

Which nuclei count does the source give for O=C1NC(=O)/C(=C/c2ccc(-c3ccc(F)cc3O)o2)S1 here?
The nuclei count was 104.

Which nuclei count does the source give for CC(=O)OC/C=C(C)/C=C/C=C(C)/C=C/C1=C(C)CCCC1(C)C [Retinyl acetate] here?
Its nuclei count is 92.9.

With Clc1ccc2c(c1)N=C(N1CCNCC1)c1ccccc1N2 [N-Desmethylclozapine] as the compound, how does the nuclei count read?
The nuclei count was 95.2.

NS(=O)(=O)c1cc2c(cc1Cl)N=C(CSCc1ccccc1)NS2(=O)=O [Benzthiazide] was tested. Which nuclei count did it give?
The nuclei count was 106.

How did the nuclei count turn out when O=C1C(CC[S+]([O-])c2ccccc2)C(=O)N(c2ccccc2)N1c1ccccc1 (stereo not drawn) [Sulfinpyrazone] was run?
Its nuclei count is 103.

How did the nuclei count turn out when O=c1ncn2nc(Sc3ccc(F)cc3F)ccc2c1-c1c(Cl)cccc1Cl was run?
The nuclei count was 99.6.

Which nuclei count does the source give for O=C(O)CC/C=C\C[C@H]1CO[C@@H](c2ccccc2Cl)O[C@H]1c1ccccc1O here?
Its nuclei count is 95.2.

C[C@]12C=CC(=O)C=C1CC[C@@H]1[C@@H]2[C@@H](O)C[C@@]2(C)[C@H]1CC[C@]2(O)C(=O)CO [Prednisolone] was tested. Which nuclei count did it give?
The nuclei count was 95.

C[C@]12C=CC(=O)C=C1CC[C@@H]1[C@@H]2[C@@H](O)C[C@@]2(C)[C@H]1CC[C@]2(O)C(=O)CO [Prednisolone (Hydroretrocortine)] was tested. Which nuclei count did it give?
The nuclei count was 98.9.

How did the nuclei count turn out when O=c1[nH]cc(F)c(=O)[nH]1 [5-fluorouracil] was run?
The nuclei count was 115.

CS(=O)(=O)c1ccc([C@@H](O)[C@@H](CO)NC(=O)C(Cl)Cl)cc1 [Thiamphenicol] was tested. Which nuclei count did it give?
Its nuclei count is 79.5.

— the supplement of paper PMC8183993
